In ChEMBL document CHEMBL1201862, “PubChem BioAssay data set” (2004):
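Cultured in 96-well plates, cells were exposed to test compound for 48 hours across five concentrations. The concentration for 50% growth inhibition is given as GI50.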 Activity calls are given as the source filed them. Rule as the data show it: active = GI50 up to about 1.1 µM and inactive = higher.

What follows are compounds tested on NCI-H322M (assay: NCI tumour cell line growth inhibition, 48 h).
`O=C1c2ccccc2-c2nnc(-c3ccc([N+](=O)[O-])cc3)cc21` was tested, and the GI50 was inactive: > 10 µM.
`C/C(=N\NC(=O)c1ccncc1)c1sc(-n2nc(-c3ccccc3)cc2-c2ccccc2)nc1C` was tested, and the GI50 was inactive: > 65.8 µM.
`NNC(=O)CCc1ccc2ccc3ccccc3c2c1` was tested, and the GI50 was inactive: > 100 µM.
With `O=C(O)Cc1nc[nH]c1C(=O)O` the GI50 was inactive: > 100 µM.
In the case of `Oc1c(C(Nc2ccccn2)c2ccccc2)ccc2cccnc12` (configuration not stated), the GI50 is reported as inactive: 3.77 µM.
In the case of `COc1cc(O)cc2oc(-c3ccc(O)cc3)cc(=O)c12`, the GI50 is reported as inactive: > 100 µM.
For `CC(C)(C)c1cc(C2COC(=O)COCCOCC(=O)OCCOCCO2)cc(C(C)(C)C)c1O` (configuration not stated), the GI50 was inactive: 24.5 µM.
With `c1ccc(OCc2nnc(CCCCCCCCc3nnc(COc4ccccc4)o3)o2)cc1` the GI50 was inactive: > 100 µM.
For `CCOc1ccccc1NC(=O)CC(C(=O)OC)C(=O)C(=O)OC` (configuration not stated), the GI50 was inactive: > 100 µM.
`COC(=O)NCCc1n[nH]c2c1C(=O)C=C(N1CCOCC1)C2=O` was tested, and the GI50 was inactive: > 100 µM.
With `C=C(C)CCN[Si](c1ccccc1)(c1ccccc1)C(C)(C)C` the GI50 was inactive: 31.4 µM.
With `N#CC(C#N)=Cn1c(=S)[nH]c2ccccc21` the GI50 was inactive: > 100 µM.
For `CC(C)=C1C2CC3(C)CCC2(C)CCC13.CC1=CCC2C3(C)CCC2(C(C)C)C1C3` (configuration not stated), the GI50 was inactive: 44.8 µM.
`COC(=O)c1c2n(c3ccccc13)C[C@H]1OC(C)(C)O[C@@H]21` was tested, and the GI50 was inactive: > 100 µM.
In the case of `CC1(C)OC2COC3(CNO)OC(C)(C)OC3C2O1` (configuration not stated), the GI50 is reported as inactive: > 100 µM.
In the case of `O=[N+]([O-])c1cccc2nc3ccccc3c(NCCNCCO)c12`, the GI50 is reported as active: 0.0153 µM.
In the case of `OCCCC(O)(c1ccccc1)c1ccccc1`, the GI50 is reported as inactive: > 100 µM.
In the case of `Cn1c(=O)oc2cc(C(O)CN3CCN(Cc4ccc5c(c4)OCO5)CC3)ccc21` (configuration not stated), the GI50 is reported as inactive: > 100 µM.
In the case of `Oc1nc2c(c(-c3ccccc3Cl)n1)COC/C2=C\c1ccccc1Cl`, the GI50 is reported as inactive: > 100 µM.
With `O=C1NC(N2CCOCC2)=N/C1=C\c1ccc(O)cc1` the GI50 was inactive: > 100 µM.
In the case of `CC(=O)OCCCCn1cnc2nc(Nc3ccccc3)nc(Cl)c21`, the GI50 is reported as inactive: > 100 µM.
In the case of `CC[C@]12C=CCN3CC[C@@]4(c5cc(Br)c(OC)c([N+](=O)[O-])c5N(C)[C@H]4[C@@](O)(C(=O)OC)[C@@H]1OC(C)=O)[C@@H]32`, the GI50 is reported as inactive: 65.2 µM.
With `CCOC(=O)c1ccc(C(=O)n2ccnc2)[nH]1` the GI50 was inactive: > 100 µM.
With `CC(C)OP(=O)(OC(C)C)c1ccc2c(c1)OCCOCCOCCOCCO2` the GI50 was inactive: > 100 µM.
For `CCCCCCCNC(P(=O)(O)O)P(=O)(O)O`, the GI50 was inactive: > 100 µM.
In the case of `CCCCCC/C(CC(=O)CCC(=O)NCCc1ccccc1)=N\NC(=O)c1ccc2ccccc2c1O`, the GI50 is reported as inactive: 42.3 µM.
`CN(CCN(C)CCN(C)C(=O)Cc1ccc(Cl)c(Cl)c1)CCN1CCCC1` was tested, and the GI50 was inactive: 21.2 µM.
`CCOC(=O)C1(Cc2ccc3ccccc3c2)CCCCC(=O)N1` (configuration not stated) was tested, and the GI50 was inactive: > 100 µM.
For `O=C1C(CN(Cc2ccccc2)Cc2ccccc2)CCCC1CN(Cc1ccccc1)Cc1ccccc1` (configuration not stated), the GI50 was inactive: > 73.5 µM.
In the case of `CCOC(=O)c1cccc(NC(=O)CBr)c1`, the GI50 is reported as inactive: 2.47 µM.
For `N#CCC(=O)N/N=C1/C(=O)N(c2ccc(Cl)cc2)C(=O)C(=O)C1c1nc2ccccc2s1` (configuration not stated), the GI50 was inactive: 36.7 µM.
In the case of `CCOC(=O)C(Cc1ccccc1)NC(=O)OC(C)(C)C` (configuration not stated), the GI50 is reported as inactive: > 100 µM.
In the case of `CCOP(=O)(OCC)C1CC(C)OC1=O` (configuration not stated), the GI50 is reported as inactive: > 100 µM.
In the case of `N#C/C(=C\c1ccc(O)c(O)c1)c1c(C#N)c(N)nn1-c1ccccc1`, the GI50 is reported as inactive: 19.7 µM.
For `O=C(O)CCCCCNC(=O)CCC(CN(CC(=O)OCc1ccccc1)CC(=O)OCc1ccccc1)N(CC(=O)OCc1ccccc1)CC(=O)OCc1ccccc1` (configuration not stated), the GI50 was inactive: 16.1 µM.
`O=S(=O)(SCc1ccccc1)C(c1ccccc1)c1ccccc1` was tested, and the GI50 was inactive: > 100 µM.
`O=C(CCCCCCCCCCc1ccccc1)C1=C(O)CC(O)CC1=O` (configuration not stated) was tested, and the GI50 was inactive: 94.4 µM.
`C=[N+](CNC(=O)CNC(=O)C(Cc1ccccc1)NC(=O)OC(C)(C)C)C(=O)CNC(=O)C(Cc1ccccc1)NC(=O)OC(C)(C)C` (configuration not stated) was tested, and the GI50 was inactive: > 100 µM.
`C[n+]1c2ccccc2n2c3ccccc3c(NCCCn3ccnc3)c(C#N)c21` was tested, and the GI50 was inactive: 2.73 µM.
In the case of `C[n+]1[se]c2ccccc2c1Cl`, the GI50 is reported as inactive: 38.8 µM.
`CC12CCC(Br)C(C)(C)C1CC=C1C(=O)OCC1O2` (configuration not stated) was tested, and the GI50 was inactive: 15.6 µM.
In the case of `COc1ccc(/C=N/n2cnc3[nH]c(C)c(Cc4ccccc4)c3c2=N)cc1`, the GI50 is reported as inactive: > 100 µM.
`O=[N+]([O-])c1ccc(-c2nc(/C=N/N3CCCCC3)cs2)o1` was tested, and the GI50 was inactive: 61.9 µM.
In the case of `COP(=O)(OC)C(N)CCSC` (configuration not stated), the GI50 is reported as inactive: > 100 µM.
With `CSC1(CC(=O)N(C)C)C(=O)Nc2ccccc21` (configuration not stated) the GI50 was inactive: > 100 µM.
With `CC(C)(C)[C@H]1CO[C@]2(C)[C@@H]3C[C@@H]3C(=O)N12` the GI50 was inactive: > 100 µM.
`Cc1ccc2[nH]c3[nH]c(=S)[nH]c(=O)c3c2c1` was tested, and the GI50 was inactive: > 100 µM.
`COc1cc2ccnc3c2c(c1OC)N(C)C=C3` was tested, and the GI50 was inactive: 15.1 µM.
`COc1cccc(Nc2nc(-c3cccs3)nc3ccc(Br)cc23)c1` was tested, and the GI50 was inactive: 75 µM.
For `O=C1c2ccccc2C2(O)NC(=S)N(c3ccccc3)C12O` (configuration not stated), the GI50 was inactive: > 100 µM.
For `Cc1cccc(C)c1NC(=O)/C(CC(=O)CC(c1ccccc1)c1c(O)c2ccccc2oc1=O)=N/O` (configuration not stated), the GI50 was inactive: > 100 µM.
`O=C(Nc1nc2ncn(CCNCc3ccccc3)c2c(=O)[nH]1)c1ccccc1` was tested, and the GI50 was inactive: > 100 µM.
With `COc1ccc(N[S+]([O-])c2ccc(-c3ccccc3)cc2)cc1` (configuration not stated) the GI50 was inactive: > 100 µM.
With `CC(C)CC(C(N)=O)C(=O)NC(Cc1ccccc1)NC(=O)CNC(=O)C(C)NC(=O)C(N)Cc1ccc(O)cc1` (configuration not stated) the GI50 was inactive: > 100 µM.
In the case of `COC(=O)C1=C(C(=O)OC)SC2(S1)C(C(=O)OC)=C(C(=O)OC)Sc1c2ss/c1=N\c1ccc(Cl)cc1`, the GI50 is reported as inactive: 1.7 µM.
`COC(=O)C(C(=O)OC)C1CC(=O)c2c(Br)sc(Br)c21` (configuration not stated) was tested, and the GI50 was inactive: 18.7 µM.
In the case of `Cc1oc2nc(N(C)C)n3cnnc3c2c1C`, the GI50 is reported as inactive: > 100 µM.
In the case of `O=C1NCN(c2ccccc2)C12CCN(CCCSc1ccc(F)cc1)CC2`, the GI50 is reported as inactive: 30.1 µM.
For `O=S1(=O)CC#CC[C@@H](CO)[C@@H](CO)CC#CC1`, the GI50 was inactive: > 100 µM.
In the case of `COC(=O)c1cc(S(=O)(=O)NC2=NNC(C)CN2)c(S)cc1Cl` (configuration not stated), the GI50 is reported as inactive: 43.1 µM.
For `C=C1[C@H](OC(C)=O)[C@H]2[C@@H](OC(C)=O)[C@@H](C)C[C@]2(C)C(=O)[C@H](C)/C=C/C(C)(C)C(=O)[C@H](OCC(C)C)[C@H]1OC(C)=O`, the GI50 was inactive: > 25 µM.
With `O=S(O)CCCCSSCCCCS(=O)(=O)S` the GI50 was inactive: 71.8 µM.
With `C/C(=N\NC(=O)c1cccnc1)c1cccc(/C(C)=N/NC(=O)c2cccnc2)n1.CC(=O)[O-].CC(=O)[O-].[Zn+2]` the GI50 was inactive: 3.05 µM.
With `CC(NNC(=O)c1cc[n+]([BH2-]C#N)cc1)c1ccc(F)cc1` (configuration not stated) the GI50 was inactive: > 100 µM.
In the case of `CCO[C@]12C[C@H](OC)[C@@]3(O)CC(C1[C@H]3O)C13C4C2[C@H](OC)C1[C@](COC)(CN4CC)[C@H](O)C[C@@H]3OC` (some centres not stated), the GI50 is reported as inactive: > 100 µM.
With `CN(C)CCCNc1ccc2nnn3c4ccc(O)cc4c(=O)c1c23` the GI50 was inactive: 3.57 µM.
`Oc1ccc2ccccc2c1Cc1c(O)ccc2ccccc12` was tested, and the GI50 was inactive: 19.1 µM.
